Test results published in publication PMC4336329 (PLoS ONE, 2015).
The campaign covered roughly 310,000 compounds. About 14,000 (4.5%) showed an effect of 50% or more. Effects have a minus sign here. Some of the results follow.

What follows are compounds tested against human ether-à-go-go-related gene (hERG) potassium channel (human, UniProt Q12809) (assay: primary screen, population patch clamp on CHO cells stably expressing hERG).
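Also: peak tail current of the secondary pulse compared with the same well before compound.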

Chain of human ether-à-go-go-related gene (hERG) potassium channel (Q12809 whole entry, looked up): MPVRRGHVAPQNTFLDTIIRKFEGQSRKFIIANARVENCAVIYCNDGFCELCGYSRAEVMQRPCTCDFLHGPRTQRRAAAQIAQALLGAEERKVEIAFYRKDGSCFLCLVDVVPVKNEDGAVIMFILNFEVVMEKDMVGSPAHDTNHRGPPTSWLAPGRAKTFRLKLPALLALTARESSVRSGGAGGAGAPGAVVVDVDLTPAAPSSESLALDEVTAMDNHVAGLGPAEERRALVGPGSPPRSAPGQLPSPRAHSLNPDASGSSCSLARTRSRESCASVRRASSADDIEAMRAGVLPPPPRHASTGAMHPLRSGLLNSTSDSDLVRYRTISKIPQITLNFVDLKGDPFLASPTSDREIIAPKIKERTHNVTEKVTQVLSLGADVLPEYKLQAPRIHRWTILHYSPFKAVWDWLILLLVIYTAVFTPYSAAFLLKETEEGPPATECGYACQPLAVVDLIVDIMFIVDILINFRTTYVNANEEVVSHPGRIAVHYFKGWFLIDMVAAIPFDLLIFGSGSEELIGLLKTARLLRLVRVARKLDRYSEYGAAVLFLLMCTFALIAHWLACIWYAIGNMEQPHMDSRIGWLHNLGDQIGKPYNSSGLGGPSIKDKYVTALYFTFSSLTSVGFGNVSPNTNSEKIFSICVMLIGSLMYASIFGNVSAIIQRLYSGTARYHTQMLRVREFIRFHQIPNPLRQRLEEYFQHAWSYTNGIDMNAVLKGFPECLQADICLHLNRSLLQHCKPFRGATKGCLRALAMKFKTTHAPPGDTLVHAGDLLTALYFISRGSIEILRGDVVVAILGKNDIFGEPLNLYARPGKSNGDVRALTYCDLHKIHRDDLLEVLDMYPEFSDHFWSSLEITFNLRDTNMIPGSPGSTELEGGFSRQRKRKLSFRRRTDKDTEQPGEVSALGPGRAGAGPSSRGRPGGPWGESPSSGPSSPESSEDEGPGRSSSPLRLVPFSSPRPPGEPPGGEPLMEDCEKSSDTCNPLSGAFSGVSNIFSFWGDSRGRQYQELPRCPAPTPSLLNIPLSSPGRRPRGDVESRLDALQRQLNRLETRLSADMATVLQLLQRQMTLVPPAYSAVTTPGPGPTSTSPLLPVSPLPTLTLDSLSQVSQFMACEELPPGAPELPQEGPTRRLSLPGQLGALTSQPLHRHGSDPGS

Compound | hERG current change (%, negative = inhibition) at 10uM
CCCOc1ccc(N2C(=O)CC(NCc3ccncc3)C2=O)cc1 (stereo not shown) | -11.6%
O=c1c2c(-c3cccs3)csc2ncn1/N=C/c1ccccn1 | 7.71%
Cc1ccc(NC(=O)CN(C)C(=O)c2cccc(S(=O)(=O)NCc3ccco3)c2)cc1 | -22%
O=C(COC(=O)CCCNC(=O)c1ccc(Cl)cc1)Nc1ccc(Br)cc1 | -8.05%
CN(C)CCOC(=O)/C(=C/c1cn(C)c2ccccc12)NC(=O)c1ccccc1 | -21.7%
CCN(CC)CCn1c(=S)[nH]c2cc3c(cc2c1=O)OCO3 | -24.2%
Cn1c(NC(=O)/C=C\c2ccccc2)cc(=O)n(C)c1=O | 17.4%
COc1ccc(C(C(=O)NC(C)(C)C)N(CCc2ccccc2)C(=O)CCC(=O)Nc2cc(C)on2)cc1 (stereo not shown) | -35.4%
CCc1ccc(NC(=O)Cn2cc([N+](=O)[O-])nc2C)cc1 | 19%
CN1CC(=O)N(CC(=O)Nc2ccc(N3CCOCC3)cc2)C1=O | 4.85%
COC(=O)c1ccccc1NC(=S)N(Cc1ccc2c(c1)OCO2)Cc1cc2cc(C)ccc2[nH]c1=O | 0.949%
COc1ccccc1N(CC(=O)Nc1cccnc1)S(C)(=O)=O | 6.19%
CCCOc1ccc(C2c3c(oc4cc(C)c(C)cc4c3=O)C(=O)N2CCCN2CCOCC2)cc1 (stereo not shown) | -12.1%
Cc1cccc(-n2ncc3c(=O)[nH]c(SCC(=O)N4CC(=O)Nc5ccccc54)nc32)c1 | 11.6%
CC(C)OC(=O)CSc1nc(-c2ccc(F)cc2)nc2ccc(F)cc12 | -40%
CCCC(c1nnnn1CS(=O)(=O)c1ccc(C)cc1)N1CCN(c2ccccc2)CC1 (stereo not shown) | 0.335%
O=C(c1ccccc1NS(=O)(=O)c1ccc(F)cc1)N1CCCC1 | -11.3%
Cn1c(=O)[nH]c2sc3c(c2c1=O)CC(C)(C)OC3 | -11.6%
O=C1OC(CC(=O)N(Cc2nnc(-c3ccccc3Cl)o2)C2CC2)c2ccccc21 (stereo not shown) | -40.3%
O=C(COc1ccc(S(=O)(=O)NCCc2ccccc2)cc1)N1CCCC1 | -6.78%
CCn1c(CNc2ccc(OC)cc2)nnc1SCC(=O)c1ccc(OC)cc1 | -19.9%
CCN(CCn1cccn1)C(=O)c1ccc(OC2CCN(C(=O)COC)CC2)cc1 | 15.8%

Compound | hERG current change (%, negative = inhibition) at 10uM
CN1C(C(=O)Nc2cccc(O)c2)=CC(c2ccco2)=NS1(=O)=O | 5.21%
C/C(=N\NC(=O)c1ccccc1)c1ccc(-n2ccnc2)cc1 | -12.3%
CC(=O)c1ccc(NC(=O)C2CCCO2)cc1 (stereo not shown) | 14.9%
CCc1nnc(NC(=O)CCC(=O)NCCc2ccc(OC)c(OC)c2)s1 | 15.5%
C=CCNC(=S)NNC(=O)c1cccn(Cc2ccc(Cl)cc2Cl)c1=O | -0.856%
CC1(C)CC(NC(=S)Nc2ccc(S(N)(=O)=O)cc2)CC(C)(C)N1 | 9.88%
CCC(O)c1nc2ccccc2n1CCc1ccccc1 (stereo not shown) | -0.168%
COc1ccc([N+](=O)[O-])cc1NC(=O)CSCc1ccc(Br)cc1 | -19.4%
CCOC(=O)C1=C(C)N(c2ccc(Cl)cc2)C(=O)NC1c1cccc([N+](=O)[O-])c1 (stereo not shown) | -24.8%
CCN(CC)CCNC(=O)c1c(O)c2cc(OC)c(OC)cc2[nH]c1=O.Cl | 23.2%
Cc1ccc2cccc(OC(=O)/C=C\c3ccccc3)c2n1 | 30.8%
CCOc1ccc(N(C)C(=O)CCc2nnc3ccc(N4CCC5(CC4)OCCO5)nn23)cc1 | 12.8%
COC(=O)c1ccccc1NC(=O)CSc1ncccn1 | -3.83%
CC1(C)C(C=C(Cl)Cl)C1C(=O)N/N=C/c1ccccc1F (stereo not shown) | 1.85%
CC(C)(C)NCC(O)COc1ccc(Br)cc1.Cl (stereo not shown) | -10.2%
Cc1cc(=O)oc2c(C)c(OC(C)C(=O)NCC3CCC(C(=O)O)CC3)ccc12 (stereo not shown) | 13.8%
Cc1cc(C)nc(NC(=O)/C=C/c2ccc(Cl)cc2)n1 | -25.4%
Cc1ccc(NC(=O)c2ccc(Oc3ncccn3)cc2)cc1 | 12.2%
O=C(NCCOc1ccc(F)cc1)C1CCC(=O)N(CC2CCCCC2)C1 (stereo not shown) | -33%
Cc1c(NC(=O)CSc2ccc(Cl)cc2)c(=O)n(-c2ccccc2)n1C | -12.5%
O=c1c(C(c2ccc(F)cc2)c2c(O)nc3n(c2=O)CCCS3)c(O)nc2n1CCCS2 | 9.97%
